Assay results: publication PMC4336329 (PLoS ONE, 2015)
In all, about 310,000 compounds went through this assay and about 2,200 (0.71%) showed an effect of 50% or more. Effects have a minus sign here. Some of the results follow.

Biological target: human ether-à-go-go-related gene (hERG) potassium channel (human, UniProt Q12809)
Assay: primary screen, population patch clamp on CHO cells stably expressing hERG

Sequence of human ether-à-go-go-related gene (hERG) potassium channel (Q12809 whole entry, looked up): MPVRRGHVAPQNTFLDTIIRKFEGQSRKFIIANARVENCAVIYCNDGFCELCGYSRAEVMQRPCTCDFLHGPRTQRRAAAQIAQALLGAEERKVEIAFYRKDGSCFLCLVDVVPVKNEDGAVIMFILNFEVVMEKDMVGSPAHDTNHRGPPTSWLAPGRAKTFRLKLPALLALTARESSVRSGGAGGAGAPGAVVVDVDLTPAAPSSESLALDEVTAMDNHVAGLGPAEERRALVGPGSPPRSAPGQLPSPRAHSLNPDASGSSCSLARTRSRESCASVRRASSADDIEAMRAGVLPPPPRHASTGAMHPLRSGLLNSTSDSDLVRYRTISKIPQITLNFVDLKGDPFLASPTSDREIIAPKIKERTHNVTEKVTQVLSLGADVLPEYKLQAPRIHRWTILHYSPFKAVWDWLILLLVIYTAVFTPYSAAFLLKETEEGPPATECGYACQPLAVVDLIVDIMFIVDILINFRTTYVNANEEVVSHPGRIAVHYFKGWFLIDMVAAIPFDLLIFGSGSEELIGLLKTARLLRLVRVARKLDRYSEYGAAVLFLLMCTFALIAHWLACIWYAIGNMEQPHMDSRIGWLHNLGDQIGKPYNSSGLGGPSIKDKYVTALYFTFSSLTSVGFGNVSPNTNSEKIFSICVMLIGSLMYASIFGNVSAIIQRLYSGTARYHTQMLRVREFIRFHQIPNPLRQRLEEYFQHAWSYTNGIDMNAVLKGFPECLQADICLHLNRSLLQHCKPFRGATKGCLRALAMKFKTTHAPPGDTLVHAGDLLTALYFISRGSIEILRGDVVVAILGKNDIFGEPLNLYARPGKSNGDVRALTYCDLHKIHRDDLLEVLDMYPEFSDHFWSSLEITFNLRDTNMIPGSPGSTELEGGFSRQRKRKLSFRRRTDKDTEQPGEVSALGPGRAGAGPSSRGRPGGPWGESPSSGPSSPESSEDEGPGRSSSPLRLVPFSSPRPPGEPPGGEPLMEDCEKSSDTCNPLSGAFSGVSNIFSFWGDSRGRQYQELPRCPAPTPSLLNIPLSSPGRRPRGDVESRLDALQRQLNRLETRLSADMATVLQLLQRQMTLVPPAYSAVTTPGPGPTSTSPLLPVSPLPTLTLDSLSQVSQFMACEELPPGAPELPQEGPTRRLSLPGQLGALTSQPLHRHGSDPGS

| SMILES | hERG current change (%, negative = inhibition) at 1uM [%] |
| --- | --- |
| Cl.O=C(c1ccco1)N1CCN(CCOc2ccc(F)cc2)CC1 | -0.809 |
| Cc1ccc(C(=O)N/N=C/c2ccc([N+](=O)[O-])s2)cc1 | 9.57 |
| CC(=O)c1c(C)[nH]c(C(=O)CSc2nnc(-c3ccc(Cl)cc3)n2CC2CCCO2)c1C (centres unmarked) | 0.922 |
| O=S(=O)(c1ccc(Cl)cc1)c1ccccn1 | 8.68 |
| Cc1cc(C)c2nc(N(CCN(C)C)C(=O)c3ccc(S(=O)(=O)N(C)CC4CCCO4)cc3)sc2c1.Cl (centres unmarked) | -1.93 |
| Cc1ccc(S(=O)(=O)/N=C(\N)Nc2nc(C)c3ccc(C)cc3n2)cc1 | -2.7 |
| Cc1ccc(N=C2S/C(=C/c3cccc(OCC(=O)O)c3)C(=O)N2C)cc1C | 8.67 |
| CCN1CCN(C(=O)Cc2ccc(C)cc2)CC1 | 13.9 |
| CC(C)CN(C(=O)CCC(=O)OC(C)C(=O)Nc1cccc(C#N)c1)c1c(N)n(CC(C)C)c(=O)[nH]c1=O (centres unmarked) | 13.1 |
| CCCc1[nH]n(-c2nc3ccccc3s2)c(=O)c1C=NCC1CCCO1 (centres unmarked) | -7.95 |
| C(=N\NC1=Nc2cccc3cccc1c23)/c1cccnc1 | 7.24 |
| Cc1ccc(CNC(=O)C2CCC(=O)N2C2CCCCC2)cc1 (centres unmarked) | 10.2 |
| CN(CCCN1CCOCC1)Cc1cn(C)nc1-c1ccccc1F | 3.45 |
| CC(C)c1cc(C(=O)N2CCCC(N3CCN(c4ccccc4F)CC3)C2)nc(N)n1 (centres unmarked) | 10.1 |
| CN(CC(=O)NCC(=O)Nc1ccc(F)cc1)C1CCS(=O)(=O)C1 (centres unmarked) | 10.7 |
| CCC(=NCC1CCCO1)c1c(O)n(-c2ccc(Cl)cc2)c(=O)[nH]c1=O (centres unmarked) | -3.6 |
| Cc1cc(C)c2cc(CN(CCO)C(=O)NC3CCCCC3)c(=O)[nH]c2c1 | 6.77 |
| CCn1c(SCC(=O)Nc2c(C)n(C)n(-c3ccccc3)c2=O)nnc1-c1cccc(C)c1 | 25.4 |
| O=C(CNC(=O)c1[nH]cnc1C(=O)NC(c1ccccc1)c1ccccc1)OCc1ccccc1 | 9.19 |

| SMILES | hERG current change (%, negative = inhibition) at 1uM [%] |
| --- | --- |
| Cc1ccc(NC(=O)c2cc(C(=O)Nc3ccc(C)cc3)n(C)n2)cc1 | 12.5 |
| O=C(N/N=C/c1ccc([N+](=O)[O-])o1)C1CCCC1 | 13.1 |
| Cn1nc(C(C)(C)C)cc1C(=O)NNC(=O)c1ccc(C(F)(F)F)cc1 | 15.3 |
| CCCCNC(=O)CSc1nc2ccc(N3CCOCC3)cc2c(=O)n1CCc1ccccc1 | -5.29 |
| CC(=O)C1=C(C)NC(=O)NC1c1cc(Br)ccc1OCC(N)=O (centres unmarked) | 1.31 |
| CN(c1ccccc1)S(=O)(=O)c1cccc2ccccc12 | 17.8 |
| CC1=C(C(=O)OC(C)C)C(c2c(O)ccc3ccccc23)NC(=O)N1 (centres unmarked) | 15.5 |
| C=CCN(c1ccccc1)S(=O)(=O)c1cccc(C(=O)N2CC(C)CC(C)C2)c1 (centres unmarked) | 8.25 |
| COc1cccc(C(=O)NC(C)C(c2cccs2)N2CCOCC2)c1 (centres unmarked) | 0.787 |
| O=C(CC(=O)Nc1cccc(Cl)c1Cl)Nc1cccc(Cl)c1Cl | 15.1 |
| CCCc1nnc(SCC(=O)N2CCOCC2)n1CCCOC | 13.8 |
| CCOC(=O)c1c(NC(=O)COC(=O)c2ccccc2NC)sc(C(=O)N(C)C)c1C | 6.12 |
| CCc1c(C)nc2cc(-c3ccc(Cl)cc3)[nH]n2c1=O | 7.07 |
| Cc1ccc2cc(NC(=O)Cc3ccccc3)ccc2n1 | 23.7 |
| Cc1ccc(C(C)NC(=S)NCc2ccc(F)cc2)c(C)c1 (centres unmarked) | 11.4 |
| CCOC(=O)C1CCN(C(=O)COC(=O)CN(C)S(=O)(=O)c2ccc(NC(C)=O)cc2)CC1 | 13 |
| COc1ccc(NC(=O)COC(=O)c2ncc(Cl)c(Cl)c2Cl)c(OC)c1 | 12.3 |
| CCc1ccc(-c2cc(C)no2)cc1S(=O)(=O)Nc1ccc(Cl)cn1 | 3.66 |
| CC(C)N(C(=O)CSc1nnc(NC(=O)c2ccco2)s1)C(C)C | 11.8 |

| SMILES | hERG current change (%, negative = inhibition) at 1uM [%] |
| --- | --- |
| O=C(NCc1ccco1)c1ccc2c(c1)C(=O)c1ccccc1-2 | 4.66 |
| COc1ccc(NC(=O)c2c(C)noc2-c2snnc2C)cc1 | 16.2 |
| CSc1ccccc1OCc1cc(C(=O)NC2CCOC2)no1 (centres unmarked) | 12.9 |
| C/C(CCc1ccccc1)=N\NC(=O)c1ccccc1 | -7.58 |
| Cc1ccc(OCCNC(=O)CCNS(=O)(=O)c2ccc(C)cc2)cc1 | 6.65 |
| Cn1c2c(c(=O)n(C)c1=O)C(c1cc3c(cc1Br)OCO3)CC(=O)N2 (centres unmarked) | 7.16 |
| Cc1ccc(OCC(=O)Nc2ccc(N3CCN(C(=O)c4ccc(C)cc4)CC3)cc2)cc1 | 8.7 |
| Cc1ccc(C)c(N(CC(=O)NCCC2=CCCCC2)S(C)(=O)=O)c1 | -2.02 |
| CC(=O)C1=C(O)C(=O)N(c2ccc(O)cc2)C1c1ccccc1Cl (centres unmarked) | 10.6 |
| COc1nc(Oc2ccc(=O)n(C)n2)nc(N(C)C)n1 | 4.3 |
| O=C(NC(=S)NNC(=O)c1ccccc1O)c1ccc(F)cc1 | 13.9 |
| COc1cccc(-c2cc(C(=O)N3CCN(C(=O)c4ccco4)CC3)on2)c1 | 5.77 |
| Cc1ccnc(NC(=O)CCC2COc3ccccc3O2)c1 (centres unmarked) | 1.13 |
| CN(C)c1cccc2cccc(N(C)C)c12 | 11.2 |
| CC(=Nc1ccccc1C(F)(F)F)c1ccncc1 | 19.8 |
| CCCc1nc2ccc(NC(=O)c3ccco3)cc2c(=O)n1Cc1ccccc1Cl | 7.79 |
| Cc1ccc(OCC(=O)N/N=C/c2cccnc2)cc1 | -4.57 |
| CCN(CC(=O)Nc1ccc2c(c1)OCCO2)C(=O)c1ccc(Cl)cc1Cl | 8.99 |
